The campaign covered roughly 48,000 compounds. About 1,200 (2.5%) were called active. Inconclusive results (about 2%) are left out.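 The calls were made as follows: active = activation of at least 60% and not above a set upper limit (about 1 call in 100 departs from these limits); inconclusive = activation of 40% to 60%, or above that upper limit; inactive = activation under 40%.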 This is one part of the list.
The molecules below were run against Probable G-protein coupled receptor 32 (Homo sapiens) (UniProt O75388) (assay: qHTS for Agonists of Human Resolvin D1 Receptor DRV1). Conditions: CHO-K1 GPR32 beta-arrestin PathHunter luminescence, 90 min; at 76.9 µM; hits give high values; zero percent set by DMSO-only wells.
Sequence of UniProt O75388 (O75388 whole entry, looked up): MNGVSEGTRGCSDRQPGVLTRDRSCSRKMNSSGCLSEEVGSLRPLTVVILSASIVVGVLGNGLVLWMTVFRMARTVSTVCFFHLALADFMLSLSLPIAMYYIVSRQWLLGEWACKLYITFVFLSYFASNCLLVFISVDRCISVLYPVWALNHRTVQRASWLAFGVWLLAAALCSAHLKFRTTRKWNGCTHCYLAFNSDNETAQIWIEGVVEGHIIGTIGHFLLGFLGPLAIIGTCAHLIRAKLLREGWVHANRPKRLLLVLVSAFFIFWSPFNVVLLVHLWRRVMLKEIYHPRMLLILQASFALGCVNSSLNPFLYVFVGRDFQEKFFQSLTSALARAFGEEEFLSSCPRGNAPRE
How it was run: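 Engineered CHO-K1 line co-expressing GPR32-ProLink and EA-beta-arrestin. Compound treatment lasted 90 min at 37 °C. Luminescence was recorded after 1 h with substrate at ambient temperature, relative to DMSO basal wells.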
Also: 0% is about no effect.

activation, inactive:
Cc1cccc(-c2nc3nc(C)cc(NCc4ccccc4Cl)n3n2)c1 5.65%, COc1cc(NC(=O)N(Cc2ccco2)C2CCN(C(C)=O)CC2)cc(OC)c1OC -1.26%, CCc1ccc(-n2c(N3CCN(c4cccc(Cl)c4)CC3)nc3ccccc3c2=O)cc1 -13.6%, CC1CCN(c2oc(-c3ccc(COc4ccccc4)o3)nc2C#N)CC1 -0.809%, CSc1ccc(CCNC(=O)c2sc3ncccc3c2-n2cccc2)cc1 -15.4%, O=C(NCC(c1cccnc1)N1CCOCC1)C(=O)Nc1cccc(Cl)c1 (centres undefined) -0.261%, CCOc1ccc(NC(=O)CN2C(=O)CCSc3ccc(S(=O)(=O)N4CCCC4)cc32)cc1 -10.4%, Cc1ccc(C)c(N2CCN(C(=O)C(C)n3nc(C)c4sc5ccccc5c4c3=O)CC2)c1 (centres undefined) -28.7%, COc1cccc(-n2cc(C(=O)NCCc3cccc(C)c3)c3ccccc3c2=O)c1 -23.3%, COC(=O)c1ccc(NC(=O)N2CCc3c([nH]c4ccccc34)C2c2ccc(C)cc2)cc1 (centres undefined) -29%, O=C(O)c1ccc(-n2nc(-c3ccccc3O)nc2-c2ccccc2O)cc1 31.6%, COc1ccccc1CNC(=O)C1CCN(c2nn3c(=O)cc(C)nc3s2)CC1 -3.49%, O=C(NCc1ccccc1Cl)C(=O)NCC(c1ccco1)S(=O)(=O)c1cccs1 (centres undefined) -15.6%, CCC1CCCCN1CCCNC(=O)c1ccc2c(c1)N(Cc1cccc(C)c1)C(=O)c1ccccc1S2(=O)=O (centres undefined) -9.69%, Cc1c2cnn(CC(=O)NCCc3ccccc3)c(=O)c2c(C)n1Cc1ccccc1Cl -16.8%, COc1ccc(Cn2c(=O)c3oc4ccccc4c3n(CC(=O)Nc3cc(C)cc(C)c3)c2=O)cc1 -17.6%, CCC1CCCCN1CCCNC(=O)c1cc2c(Cl)nc3ccc(C)cc3c2s1 (centres undefined) -5.85%, CCc1ccc(NC(=O)CSc2nc(=O)n(Cc3cccnc3)c3c2CCC3)cc1 30.8%, CC(=O)c1ccc(NC(=O)CN2C(=O)c3cccnc3Sc3ccccc32)cc1 4.28%, CCOc1ccc(NC(=O)CSc2nc3nc(C)c(Cc4ccccc4)c(C)n3n2)cc1 -23.5%, COc1cc(C(=O)NCC(c2ccc(N(C)C)cc2)N2CCCC2)cc(OC)c1OC (centres undefined) -13.9%, COc1ccc(/C=C(\C#N)c2nc(-c3ccc(Cl)c(Cl)c3)cs2)cc1OC -6.75%, CCc1ccccc1NC(=O)CSc1nc2c(oc3ccccc32)c(=O)n1-c1ccccc1 18.2%, O=C(COc1ccccc1F)NC1CC(=O)N(c2ccc3c(c2)OCCO3)C1 (centres undefined) 2.39%, Cc1ccc(-c2nc3ccc(Br)cn3c2Nc2ccc3c(c2)OCO3)o1 -20.6%, COc1cccc(Nc2cc(-c3ccccc3)nc(C)n2)c1 -7.88%, Cc1ccc(C)c(N2CCN(C(=O)c3cc(S(=O)(=O)N4CCCC4)c[nH]3)CC2)c1 -16.9%, CCCOc1ccc(C(=O)Nc2ccc(NC(=O)c3cccc(Cl)c3)cc2)cc1 8.97%, COc1ccc(C)c2sc(N(Cc3cccnc3)C(=O)COc3ccccc3)nc12 -37.2%, Cc1cccc(Nc2ncnc3c2cnn3C)c1C -5.39%, CCc1ccc(S(=O)(=O)Nc2cc(-c3cn4ccccc4n3)ccc2C)cc1 16.3%, COc1ccc(NC(=O)c2c(NCc3cccc(OC)c3)sc3c2CCC3)cc1 -9.83%, COc1cc(OC)cc(C(=O)NCc2ccc3c(c2)CCN3C(=O)c2ccccc2)c1 -21.6%, Cc1ccc(-n2ncc3c(N4CCN(C)CC4)ncnc32)cc1 44.5%, Cc1ccc2c(c1)N(C(=O)N1CCC(C(=O)NC3CCCCCC3)CC1)CCO2 -10.6%, CN(C)c1ccc(-c2nc(-c3ccncc3)no2)cc1[N+](=O)[O-] 2.24%, COc1cc(C(=O)N2CCC(c3ccncc3)CC2)cc(OC)c1OC 8.7%, COc1ccc(Cn2c(C(=O)O)c(CNC3CCC(C)CC3)c3ccc(C)cc32)cc1 (centres undefined) 4.98%, COc1ccc(CC(=O)N2CC(=O)Nc3ccc(Br)cc3C2c2ccc(F)cc2)cc1OC (centres undefined) -13.6%, COc1cc2nc(NCc3ccccc3Cl)n3nc(-c4cccnc4)nc3c2cc1OC -3.37%, COC(=O)c1ccc(NC(=O)CC2C(=O)N(c3ccccc3)C(=O)N2C2CCCC2)cc1 (centres undefined) -22.5%, CCOc1ccc(Nc2c(S(=O)(=O)c3ccc(C)cc3)cnc3ccc(OC)cc23)cc1 -43.4%, CC(=O)N1CCCc2cc(S(=O)(=O)NCc3ccc(N(C)C)cc3)ccc21 13%, COc1cccc(CNC(=O)c2cc(-c3cccs3)nc3ccccc23)c1 4.17%, COCCCNC(=O)CSc1nc2nc(C)c(Cc3ccccc3Cl)c(C)n2n1 -0.387%, Cn1nc(-c2ccccc2)c(-c2ccccc2)c(C(=O)Nc2ccc(S(N)(=O)=O)cc2)c1=O -6.61%, COc1cccc(C(=O)Nc2ccc3nc(SCc4ccc(C)cc4)sc3c2)c1 19.7%, Cc1cccc(-n2c(SCC(=O)Nc3ccccc3Cl)nc3n[nH]c(C)c3c2=N)c1 -14%, Cc1cc(C)cc(NC(=O)CSCc2cc(=O)c3cc(Cl)ccc3[nH]2)c1 -4.99%, Cc1cccc(NC(=O)Cn2nc(C)c3nn(-c4ccc(Cl)cc4)c(C)c3c2=O)c1C -10.6%, COc1ccccc1N1CCN(C(=O)c2ccc3c(c2)N(Cc2ccccc2)C(=O)c2ccccc2S3(=O)=O)CC1 -15.5%, Cc1ccc(N2CCN(Cc3nnc(-c4ccc5c(c4)OCO5)o3)CC2)c(C)c1 10.4%, Cc1cccc(-c2noc(CN(C(C)C)S(=O)(=O)c3ccc(Br)cc3)n2)c1 -24.7%

activation, active:
O=C(NCC(c1cccs1)S(=O)(=O)c1cccs1)c1ccc(Cl)cc1 (centres undefined) 99.8%

— PubChem BioAssay AID1346428 (National Center for Advancing Translational Sciences (NCATS), 2018)
